According to PubChem BioAssay AID1508623 (National Center for Advancing Translational Sciences (NCATS), 2021):
Hit rate of the full screen: of about 48,000 compounds, about 450 (0.94%) were called active. Another 19% or so got no clear call; they are omitted. Calls come from the whole dose curve; as a rule, active = well fitted inhibition curve with a large enough effect; inconclusive = small, poorly fitted or top-dose-only effect; inactive = no such curve, though single readings can be large or run the other way. The list shows a part of the results.

Assay: Primary qHTS for Identification of Small Molecule Inhibitors of Huntingtin Promoter Activity; note: nearly all actives have a fitted effect of over 50% in size
Conditions: HEK293 HTT promoter firefly luciferase reporter (activity 0% = vehicle and -100% = no light), 24 h; series mostly up to 57.5 µM; activity change, negative = inhibition: at the top concentration
How it was run: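 Firefly luciferase readout (Dual-Glo, 10 min RT) after 24 h, 37 °C compound exposure (final up to 57.5 uM) of HEK293 reporter cells cultured 24 h beforehand; PTC124 at 50 uM final as control inhibitor; activity scaled vehicle 0%, zero RLU -100%.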
Potency is the fitted concentration of half-maximal effect.

Potency, active:
COc1cccc(Cn2cnc3c2c(=O)n(C)c(=O)n3C)c1 14.1 µM

Activity change, negative = inhibition, inactive:
CC(=O)N1CCCc2cc(S(=O)(=O)N3CCC(N(C)C(C)C)CC3)ccc21 -6.77%
Cc1nc2c(C(=O)NCCC(C)C)cnn2c(C)c1Cc1c(F)cccc1Cl -10.9%
CCC(C)NC(=O)C1CCN(S(=O)(=O)c2ccc3c(ccn3CC)c2)CC1 (stereo unspecified) -19.2%
COc1cccc2sc(N(Cc3cccnc3)C(=O)c3ccc(S(=O)(=O)N(C)C)cc3)nc12 -19.8%
O=C(O)c1ccccc1NC(=O)N1c2ccccc2Sc2ccccc21 -7.5%
CCOC(=O)C1CCCN(C(=O)C2CCN(S(=O)(=O)c3c(C)noc3/C=C/c3ccc(C)cc3)CC2)C1 (stereo unspecified) -12.8%
CC1CCCN(Cc2c(O)ccc3c(=O)c(-c4ccc(Cl)cc4)c(C(F)(F)F)oc23)C1 (stereo unspecified) -3.93%
COc1cc2c(cc1OC)C(c1cc(OC)c(O)c(OC)c1)CC(=O)N2 (stereo unspecified) 6.57%
Cc1cc(C)cc(N2C(=O)CS(=O)(=O)C23C(=O)N(Cc2ccccc2)c2ccccc23)c1 (stereo unspecified) -26.9%
CC(C)(O)c1ccccc1CC[C@@H](SCC1(CC(=O)O)CC1)c1cccc(/C=C/c2ccc3ccc(Cl)cc3n2)c1 10.6%
Cc1cc(OCC(=O)Nc2ncn[nH]2)c(C)c(C)c1Br 4.5%
COc1nnc(-c2ccc(N3CCCCC3)c(NC(=O)c3ccc(Cl)cc3)c2)c2ccccc12 -22.9%
CCc1cc(=O)[nH]c(SCc2nc(-c3ccccc3C)no2)n1 -4.32%
CCOC(=O)C1CCN(c2ncnc3c2c(-c2ccccc2)cn3-c2ccc(C)c(Cl)c2)CC1 -14%
O=C1NC(=O)C(c2ccccc2)(c2ccccc2)N1 -10.1%
COc1ccc(OC)c(NC(=O)c2nc(SCc3ccc(F)cc3)ncc2Cl)c1 -0.177%
O=C(NCCc1csc(-c2ccc(F)cc2)n1)C(=O)Nc1ccc(Cl)cc1 -5.13%
CCC(=O)N1c2ccc(S(=O)(=O)NCCc3ccccc3)cc2CC1C (stereo unspecified) -29.4%
O=C(/C=C/c1cn(CC(O)CN2CCc3ccccc32)c2ccccc12)c1ccc(Br)cc1 (stereo unspecified) -23.8%
COC(=O)c1ccccc1NC(=O)N(Cc1ccc(C)cc1)Cc1cccn1-c1nnc(N2CCCC2=O)s1 -11.5%
CCOC(=O)c1[nH]c(C)c(CCC(=O)NCc2ccc(OC(C)C)cc2)c1C -35.6%
Cc1ccc(CNS(=O)(=O)c2c(C(=O)N3CCC(C)CC3)c(C)n(C)c2C)cc1 -15%
COc1ccc(C)cc1NC(=O)C1CCN(S(=O)(=O)c2cccc3nonc23)CC1 -8.54%
Cc1cc(Nc2cccc(O)c2)c2cccc(Br)c2n1 4.02%
Cc1sc2ncn(CC(=O)Nc3ccc(C(F)(F)F)cc3)c(=O)c2c1S(=O)(=O)N1CCN(C)CC1 -15.8%
